Measurements as given in the supplement of paper PMC8728848.
This is one part of a sample in which the strongest signals are shown more often than they occur.

System: Fuc(a1-2)[Gal(a1-3)]Gal(b1-3)GlcNAc
Test: glycan array binding signal (z-score within array); higher = stronger binding
Settings: glycan notation: IUPAC condensed, linker removed
Method in brief: (§1)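 Arrays were curated from the Consortium for Functional Glycomics database, 3228 in total, and kept only where the protein sequence was available. Binding is expressed as a within-array Z-score. This score was averaged across arrays of the same protein sequence at different concentrations or buffers and across linkers, and negative values can be read as non-binding.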

Row | Substance | glycan array binding signal (z-score)
1 | Angiogenin (Homo sapiens) (chain not printed) | -0.56
2 | H-Ficolin (Homo sapiens) (chain not printed) | -0.083
3 | Siglec-2 (Homo sapiens) (chain not printed) | 0.014

System: Fuc(a1-2)[Gal(a1-4)]Gal(b1-4)GlcNAc
Test: as above
Settings: glycan notation: IUPAC condensed, linker removed
Method in brief: as §1

Row | Substance | glycan array binding signal (z-score)
4 | Gal 8 long (Homo sapiens) (chain not printed) | 2.77
5 | Collectin K1 (Homo sapiens) (chain not printed) | -0.232
6 | M-Ficolin (Homo sapiens) (chain not printed) | -0.256
